Reference: PubChem BioAssay AID588342 (National Center for Advancing Translational Sciences (NCATS), 2011)
Out of some 360,000 compounds screened, about 25,000 (6.9%) were called active. Inconclusive means that the source gave no clear call. Such entries were picked first, then a sample of the others. Calls come from the whole dose curve; as a rule, active = well fitted inhibition curve with a large enough effect; inconclusive = small, poorly fitted or top-dose-only effect; inactive = flat fitted curve, though single readings scatter. Potencies beside an inconclusive call are fits to weak or partial responses and may not hold up.

Target: Luciferin 4-monooxygenase (Photinus pyralis) (UniProt P08659)
Assay: qHTS profiling assay for firefly luciferase inhibitor/activator using purifed enzyme and Km concentrations of substrates (counterscreen for miR-21 project); note: nearly all actives have a fitted effect of over 55% in size;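 for activity change, negative = inhibition: plate controls were vehicle for no effect and reference inhibitor for full effect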
Details: purified FLuc, luminescence inhibition; series mostly up to 57.5 µM; activity change, negative = inhibition: at the top concentration
In short: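 Purified P. pyralis luciferase (10nM final) with 10uM D-luciferin and 10uM ATP (Km levels) in 50mM Tris acetate pH 7.5, 10mM Mg acetate, 0.01% Tween-20, 0.05% BSA; qHTS 6-point titration, ~60 µM downward; luminescence read.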
Potency is the fitted concentration of half-maximal effect; tags give direction and shape of the fitted curve.

Chain of UniProt P08659 (P08659 whole entry, looked up): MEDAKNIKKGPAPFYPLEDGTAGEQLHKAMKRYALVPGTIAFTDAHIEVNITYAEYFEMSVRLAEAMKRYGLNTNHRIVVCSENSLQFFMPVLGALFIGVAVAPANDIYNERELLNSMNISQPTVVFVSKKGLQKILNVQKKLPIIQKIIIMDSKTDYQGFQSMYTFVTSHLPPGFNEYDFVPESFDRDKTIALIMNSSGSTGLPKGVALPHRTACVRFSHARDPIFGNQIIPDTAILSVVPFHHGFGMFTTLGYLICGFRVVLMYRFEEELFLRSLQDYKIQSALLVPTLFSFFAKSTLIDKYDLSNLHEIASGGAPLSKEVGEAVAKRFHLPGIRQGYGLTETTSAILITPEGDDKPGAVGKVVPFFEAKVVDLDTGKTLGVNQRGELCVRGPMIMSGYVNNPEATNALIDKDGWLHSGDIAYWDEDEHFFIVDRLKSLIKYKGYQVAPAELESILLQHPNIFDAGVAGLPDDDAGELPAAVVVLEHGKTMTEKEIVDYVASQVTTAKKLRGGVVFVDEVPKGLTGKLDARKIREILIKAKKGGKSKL

Row | Compound | Potency | activity change, negative = inhibition
1 | COCCn1c(SCc2cnc(-c3ccccc3)s2)nnc1-c1ccncc1 | inconclusive: 23.9 µM [inhibitor, partial curve, poor fit] | –
2 | O=C(Nc1ccccc1F)C1CC1c1ccccc1 (stereo not drawn) | inconclusive: 23.9 µM [inhibitor, partial curve, poor fit] | –
3 | CN(c1ccc(C(=O)N2CCOCC2)cc1[N+](=O)[O-])C1CCCCC1 | inconclusive: 23.9 µM [inhibitor, partial curve] | –
4 | CCOC(=O)C(=N/O)/C(C)=N/NC(=O)C(=O)Nc1ccc(Cl)cc1 | inconclusive: 23.9 µM [inhibitor, single point] | –
5 | Cc1ccc2nc(C(F)OC(F)(F)F)[nH]c2c1 (stereo not drawn) | inconclusive: 37.9 µM [inhibitor, partial curve, poor fit] | –
6 | O=C(Cc1ccc(NC(=O)N2CCCCc3ccccc32)cc1)NCc1ccccc1 | – | inactive: -17.1%
7 | Oc1ccc(/C=N/Nc2ncnc3nc[nH]c23)cc1 | inconclusive: 15.1 µM [inhibitor, partial curve] | –
8 | Cc1snc(SCC(=O)c2ccc(F)cc2)c1C#N | inconclusive: 37.9 µM [inhibitor, partial curve, poor fit] | –
9 | COc1cccc(NC(=O)Cc2cn(C)c3ccccc23)c1 | inconclusive: 30.1 µM [inhibitor, partial curve, poor fit] | –
10 | CC1Sc2ccc(C(=O)O)cc2NC1=O (stereo not drawn) | – | inactive: 1.28%
11 | O=C(COc1cccc([N+](=O)[O-])c1)N/N=C/c1ccco1 | – | inactive: 4.58%
12 | COc1cc(OC)cc(C(=O)Nc2cccc3cccnc23)c1 | inconclusive: 21.3 µM [inhibitor, single point] | –
13 | CCOc1ccc(Sc2cc(C(=O)NCCc3ccccc3)c3ccccc3n2)cc1 | – | inactive: -7.2%
14 | O=C(Nc1ccc(N2CCCCC2)cc1)c1cncc(Br)c1 | active: 6.01 µM | –
15 | O=C(c1ccc(C(F)(F)F)cc1)C1CCCN(C(=O)CCc2ccncc2)C1 (stereo not drawn) | – | inactive: -1.82%
16 | CCOc1nc(NC(=O)NS(=O)(=O)Oc2ccccc2)nc(-c2ccccc2)n1 | inconclusive: 21.3 µM [inhibitor, partial curve, poor fit] | –
17 | COc1ccc(C(c2c(O)ccc3ccccc23)N2CCOCC2)c(OC)c1 (stereo not drawn) | active: 12 µM | –
18 | S=C(NCCc1ccccc1)NCc1ccccc1Cl | – | inactive: -5.36%
19 | CCOC(=O)c1ccccc1NC1c2ccccc2C(=O)N1c1ccc(C)cn1 (stereo not drawn) | inconclusive: 23.9 µM [inhibitor, single point] | –

Row | Compound | Potency | activity change, negative = inhibition
20 | Cc1ccc(CSc2nc(-c3ccccc3)c(C#N)c(=O)[nH]2)cc1 | – | inactive: -1.34%
21 | COc1cc(/C=C/c2cc[n+](C)cc2)ccc1OCC(=O)Nc1ccccc1 | inconclusive: 37.9 µM [inhibitor, single point] | –
22 | CCc1ccc(Nc2nnc(SCC(=O)NCCN3C(=O)CSC3=O)s2)cc1 | active: 1.9 µM | –
23 | Cc1cc(OCC(=O)Nc2ccncc2)ccc1Br | inconclusive: 26.9 µM [inhibitor, single point] | –
24 | O=C(COC(=O)c1ccc(Cl)cc1Cl)Nc1cccc(S(=O)(=O)NC2=NCCC2)c1 | inconclusive: 23.9 µM [inhibitor, partial curve, poor fit] | –
25 | CCn1c(SCC(=O)Nc2sc3c(c2C(N)=O)CCC(C)C3)nnc1-c1ccco1 (stereo not drawn) | inconclusive: 16.9 µM [inhibitor, single point] | –
26 | CCOc1cc(C(=O)N2CCc3c([nH]c4ccccc34)C2c2ccccc2)cc(OCC)c1OCC (stereo not drawn) | – | inactive: 0.104%
27 | CCOC(=O)C1CCN(C(=O)c2cccc(S(=O)(=O)N3CCc4ccccc43)c2)CC1 | – | inactive: -1.27%
28 | Cc1ccc(C(=O)OCC(=O)Nc2ccc3c(c2)OCO3)o1 | – | inactive: -15.3%
29 | CCN(CC)c1ccc(/C=C2\NC(=O)NC2=O)cc1 | inconclusive: 21.3 µM [inhibitor, partial curve] | –
30 | COc1ccccc1CNc1ccc(-c2nc(-c3ccncc3)no2)cc1[N+](=O)[O-] | – | inactive: -5.82%
31 | Cc1cccc(-n2c(C)cc(C)c(C#N)c2=O)c1 | inconclusive: 26.9 µM [inhibitor, partial curve, poor fit] | –
32 | O=C(Cc1ccccc1)Nc1ccc(N2CCCCC2)cc1 | active: 6.01 µM | –
33 | CCCSC1=N/C(=C\c2ccsc2)C(=O)S1 | inconclusive: 37.9 µM [inhibitor, partial curve, poor fit] | –
34 | O=C(O)c1cccc(NC(=O)C2C3C=CC(C3)C2C(=O)OCC(F)(F)C(F)F)c1 (stereo not drawn) | active: 16.9 µM | –
35 | O=C(O)Cc1csc(-c2cccc(F)c2)n1 | inconclusive: 26.9 µM [inhibitor, partial curve, poor fit] | –
36 | Cc1ccc(-c2cc(C(=O)N3CCN(C(=O)c4ccco4)CC3)no2)cc1 | inconclusive: 26.9 µM [inhibitor, single point] | –
37 | Cc1ccccc1NC(=O)COc1ccccc1C | inconclusive: 30.1 µM [inhibitor, partial curve, poor fit] | –
38 | O=C(NC1CCCCCC1)c1ccc2c(c1)sc1nc(-c3ccccc3)cn12 | – | inactive: -2.42%
